# Measured values published in PMC4336329 (PLoS ONE, 2015).
# The campaign covered roughly 310,000 compounds. About 2,200 (0.71%) showed an effect of 50% or more. The effect is printed as a negative number. The list shows a part of the results.
# Molecular target: human ether-à-go-go-related gene (hERG) potassium channel (human, UniProt Q12809)
# Assay: primary screen, population patch clamp on CHO cells stably expressing hERG
# Chain of human ether-à-go-go-related gene (hERG) potassium channel (Q12809 whole entry, looked up): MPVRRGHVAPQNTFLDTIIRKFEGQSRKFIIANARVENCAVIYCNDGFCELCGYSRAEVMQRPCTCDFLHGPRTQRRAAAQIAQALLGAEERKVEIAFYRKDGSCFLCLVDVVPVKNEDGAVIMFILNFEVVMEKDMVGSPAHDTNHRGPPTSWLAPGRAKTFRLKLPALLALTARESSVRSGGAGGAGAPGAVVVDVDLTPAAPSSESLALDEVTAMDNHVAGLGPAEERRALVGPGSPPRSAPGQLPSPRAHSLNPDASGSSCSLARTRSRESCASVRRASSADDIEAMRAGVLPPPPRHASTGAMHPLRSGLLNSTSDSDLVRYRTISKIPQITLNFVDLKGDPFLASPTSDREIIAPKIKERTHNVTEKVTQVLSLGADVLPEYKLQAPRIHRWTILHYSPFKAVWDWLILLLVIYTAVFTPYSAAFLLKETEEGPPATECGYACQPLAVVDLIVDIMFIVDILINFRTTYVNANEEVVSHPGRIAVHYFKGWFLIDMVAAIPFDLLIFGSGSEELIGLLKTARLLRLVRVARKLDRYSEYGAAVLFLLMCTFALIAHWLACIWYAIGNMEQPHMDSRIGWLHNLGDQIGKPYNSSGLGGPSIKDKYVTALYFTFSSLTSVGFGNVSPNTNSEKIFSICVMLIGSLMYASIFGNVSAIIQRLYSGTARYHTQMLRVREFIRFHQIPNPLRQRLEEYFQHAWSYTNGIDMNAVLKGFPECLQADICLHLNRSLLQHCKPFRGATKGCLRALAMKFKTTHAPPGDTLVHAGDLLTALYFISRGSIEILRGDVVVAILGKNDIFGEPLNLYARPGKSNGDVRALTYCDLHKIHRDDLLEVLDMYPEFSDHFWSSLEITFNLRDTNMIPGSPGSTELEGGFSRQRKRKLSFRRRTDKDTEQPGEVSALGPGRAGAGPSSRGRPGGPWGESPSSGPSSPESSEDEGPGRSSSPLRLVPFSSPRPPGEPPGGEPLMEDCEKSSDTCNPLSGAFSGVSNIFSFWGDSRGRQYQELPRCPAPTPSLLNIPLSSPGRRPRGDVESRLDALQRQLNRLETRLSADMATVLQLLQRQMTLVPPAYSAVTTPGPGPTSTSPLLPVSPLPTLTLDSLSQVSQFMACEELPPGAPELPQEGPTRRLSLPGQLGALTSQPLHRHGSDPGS
row,SMILES,"hERG current change (%, negative = inhibition) at 1uM [%]"
1,CCCSc1ccc([C@@H]2[C@H]3C(=O)N(CC)C(=O)[C@H]3[C@]3(C(=O)OC)CCCCN23)cc1OC.O=C(O)C(F)(F)F,13.7
2,O=C(CSc1nnc(-c2ccccc2)n1Cc1ccco1)Nc1ccc(S(=O)(=O)N2CCCC2)cc1,5.39
3,CCN(CC)c1nc(-c2cccc(OC)c2O)nc2ccccc12,18.3
4,Cc1cc(C)n2nc(SC3CCCCN(C(=O)c4ccc(F)cc4)C3=O)nc2n1 (stereo not drawn),0.703
5,COCC(C)OC(=O)c1c(N)n(Cc2ccco2)c2nc3ccccc3nc12 (stereo not drawn),-3.57
6,CCCNC(=O)N(CCOC)CC1CCCN(C2Cc3ccccc3C2)C1 (stereo not drawn),-1.59
7,Clc1ccc(CN2CCCCCCC2)cc1Cl,9.18
8,COc1ccc(/C=C/CN2CCC(n3nccc3NC(=O)C3CC3)CC2)cc1,-59.6
9,O=C(NCc1nc2ccccc2[nH]1)C1=C[C@H](c2ccc(Br)cc2)C[C@H](OCc2ccc(CO)cc2)O1,17.9
10,CCC(=O)Nc1ccc(C(=O)Nc2cc(C)on2)cc1,-8.48
11,COc1ccc(N(CC(=O)Nc2cccc(N(C)S(C)(=O)=O)c2)S(=O)(=O)c2ccc(F)cc2)cc1,15.5
12,COc1ccc(-c2cc(Nc3ccccc3NC(=O)C(F)(F)F)n(CCC#N)n2)cc1,5.4
13,O=C(c1ccc(F)cc1)N1CCN(c2cnn(-c3ccccc3)c(=O)c2Cl)CC1,-12.2
14,O=C(CN1C(=O)c2cccc3cccc1c23)Nc1ccccc1,3.92
15,O=C(/C=C1\SC(=O)NC1=O)Nc1ccc(F)cc1,6.55
16,O=C(c1cnn2c(C(F)(F)F)cc(-c3cccs3)nc12)N1CCN(C(c2ccccc2)c2ccccc2)CC1,13.4
17,CN(C)CC(C)(C)CNC(=O)CC1C(=O)NCCN1Cc1ccc(-c2ccccc2)cc1 (stereo not drawn),3.88
18,COc1ccc(C2=NN(C(=O)CN3CCCCC3)C(c3ccc(OC)cc3)C2)cc1 (stereo not drawn),-8.18
19,CS(=O)(=O)N(CC(=O)N1CCN(c2ccccc2)CC1)c1ccc(Cl)c(C(F)(F)F)c1,18.9
20,Nc1c(C(=O)Nc2ccccc2)sc2nc(-c3cccnc3)ccc12,5.13
21,CCOC(=O)c1c(-c2ccccc2)csc1NC(=S)NC(=O)c1ccccc1,24.5
22,CCOC(=O)CSC1=Nc2ccccc2C2=NC(CC(=O)NCc3cccs3)C(=O)N12 (stereo not drawn),-1.83
23,COCc1cc(=O)[nH]c2cc(NC(=O)C(F)(F)F)c(C)cc12,5.36
24,COc1ccc(C(=O)COC(=O)CCNS(=O)(=O)c2ccc(NC(C)=O)cc2)c(OC)c1,6.37
25,CC(C)NC(=O)NC(=O)CSc1ccc(S(=O)(=O)N2CCCC2)cn1,-1.38
26,CCCNC(=O)Cn1c(-c2ccc(F)cc2)cc(C(=O)OCC)c1C,7.7
27,O=C(CCc1ccccc1)NC(NC(=S)Nc1ccc(Cl)cc1)C(Cl)(Cl)Cl (stereo not drawn),15.2

row,SMILES,"hERG current change (%, negative = inhibition) at 1uM [%]"
1,COc1ccccc1NC(=O)CC1CCCC1,11.5
2,COc1ccc(N(C(=O)c2ccccc2OC(C)=O)C(C)C2CC2)cc1 (stereo not drawn),4.18
3,CCn1c(=NC(=O)C2COc3ccccc3O2)sc2c(OC)ccc(OC)c21 (stereo not drawn),9.2
4,CCOC(=O)COc1nc(C)c(Br)c(OC)n1,8.04
5,CCCC(=O)Nc1cccc(Oc2nc(C)cc(C)c2C#N)c1,9.11
6,CN(C)CC(C)(C)CNC(=O)c1cc(Br)cc(Br)c1O,2.84
7,CC(C)C[C@@H](CO)N1CCN(CC(C)C)CCC1=O,1.1
8,CC(NC(=S)NCCc1ccccc1)C(c1cccs1)N1CCN(C)CC1 (stereo not drawn),10.8
9,CCOC(=O)[C@@H]1[C@H]2COc3ccc(Br)cc3[C@@H]2N2C(=O)N(c3ccc(OC)cc3)C(=O)[C@]12C,12.9
10,O=C(Nc1ccccc1F)c1ccc2ncsc2c1,10.8
11,Cn1c(=O)[nH]c(=O)c2c1nc(NN)n2CCOc1ccccc1,17.7
12,Nc1nc(N)c(C=Nc2ccc(Br)cc2)c(Nc2ccc(Br)cc2)n1,16.6
13,CN(CC(=O)NCCc1ccccc1)S(=O)(=O)c1ccc(Br)cc1,-0.488
14,C=CCn1c(=O)c2ccccc2n2c(SCC(=O)/C(C#N)=C(\C)N)nnc12,-3.17
15,Cc1nc(C(=O)Nc2ccccc2)sc1C1(C)CC(c2cccc([N+](=O)[O-])c2)=NO1 (stereo not drawn),8.71
16,O=C(NC1(C(F)(F)F)NC(=O)N(c2ccccc2F)C1=O)c1ccncc1 (stereo not drawn),11
17,COC(=O)CS(=O)(=O)c1cc(Br)cc2c1N(C(C)=O)CC2,6.82
18,CCC(=O)Nc1ccc(C(=O)CSc2nc3ccc(C)cc3[nH]2)cc1,10
19,CCOc1ccc(S(=O)(=O)NCc2ccccn2)cc1NC(=O)c1ccccc1,1.91
20,CC(=O)Nc1cccc(NC(=O)c2ccco2)c1,7.34
21,COc1ccc(NC(=O)CN(C)C(=O)Cc2ccc3c(c2)CCC3)cc1,6.51
22,COc1ccc(N(C)C(=O)c2ccc3nc(-c4ccccc4)c(-c4ccccc4)nc3c2)cc1,1.6
23,Cc1c(C)n2c(SCC(=O)N3CCC(C)CC3)nnc2[nH]c1=O,17.5
24,COc1cccc(CNc2nnnn2C)c1OC,13.8
25,COc1ccc(CCNC(=S)NC2CCN(Cc3ccccc3)CC2)cc1,-5.37
26,CC(=O)Nc1ccc(S(=O)(=O)Nc2cccc(-c3csc(C)n3)c2)cc1,7.78
27,COc1cc2c(cc1OC)C1=NC(=O)CN1C(SCc1ccccc1C)=N2,3.52
